Test results reported in the RNAGym collection of RNA variant scans (doi:10.1093/nar/gkz1192).
Read counts are not given, so values of variants with three or more changes are uncertain.

B1: CPEB3 Ribozyme (parent)
chain: UAACAGGGGGCCACAGCAGAAGCGUUCACGUCGCAGCCCCUGUCAGAUUCUGGUGAAUCUGCGAAUUCUGCUGUAUAUCUC

Variants of: B1
Assay: self-cleavage, relative activity (ratio to wild type); higher = more cleavage; in vitro, sequencing
Procedure, shortened: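 For each CPEB3 ribozyme variant, relative activity is its cleaved/total read fraction divided by the unmutated ribozyme's. Barcoded error-prone PCR libraries were transcribed by T7 RNA polymerase (5 hours, 37°C) and held in DNase I for 15 min before an EDTA stop, with cleavage occurring throughout. Template-switching reverse transcription and Illumina sequencing were used to read the RNAs. A 5-read minimum applied, and results are the mean of three batches.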

| Variant | self-cleavage |
| --- | --- |
| A28U C40A A65G U69C | 0.1 |
| A28U C40G A47G | 0.28 |
| A28U C40U A64G U69C | 0.36 |
| A28U C44A A45U U51C U60C U78C | 0.2 |
| A28U G30A U48A | 0.19 |
| A28U G30C U43A A45U | 0.08 |
| A28U G30C U72C U78C | 0.07 |
| A28U G30U U31C U41A U72C A77G | 0.11 |
| A28U G33A A47G U51C | 0.11 |
| A28U G33C G73C U78C | 0.08 |
| A28U G33U U51C G53A U76C U80A | 0.06 |
| A28U G36A U49C | 0.37 |
| A28U G36U A45G | 0.15 |
| A28U G42A U51C | 0.14 |
| A28U G42A U69C | 0.5 |
| A28U G46C U48C G52A A57C A65C | 0.07 |
| A28U G52A U58G U60A A65G | 0.15 |
| A28U U31A A45G | 0.34 |
| A28U U31A A56G U80C | 0.44 |
| A28U U31A U48A U67C | 0.43 |
| A28U U31A U49A A65G | 0.18 |
| A28U U31A U67C U80C | 0.07 |
| A28U U31C A35U U49C A64U | 0.11 |
| A28U U31C A45G | 0.25 |

| Variant | self-cleavage |
| --- | --- |
| A28U U31C A45G U48C | 0.07 |
| A28U U31C A45G U78A | 0.34 |
| A28U U31C A56U | 0.33 |
| A28U U31C A65G | 0.13 |
| A28U U31C C40U U43A U54C U78C | 0.16 |
| A28U U31C C40U U78A | 0.25 |
| A28U U31C U43C | 0.24 |
| A28U U31C U49A | 0.23 |
| A28U U31C U54A A56G U72C U78A | 0.35 |
| A28U U31C U78C | 0.55 |
| A28U U31C U80C | 0.73 |
| A28U U41A A75U | 0.08 |
| A28U U41A U49C | 0.09 |
| A28U U41A U49C U58C C59U | 0.08 |
| A28U U41A U51A A75G A77U | 0.09 |
| A28U U41C A47U G70A U72C | 0.07 |
| A28U U41C A56U U80A | 0.63 |
| A28U U41C G61U U67C A77G | 0.09 |
| A28U U41C U49C A64G | 0.13 |
| A28U U41C U51A U78C | 0.67 |
| A28U U43A U60A U69A U72A | 0.33 |
| A28U U43A U69C | 0.67 |
| A28U U43C A47U | 0.38 |
| A28U U43C A47U U51C U60G A75G | 0.07 |

| Variant | self-cleavage |
| --- | --- |
| A28U U43C A65C | 0.13 |
| A28U U43C G52U | 0.19 |
| A28U U43C U58C U69C | 0.16 |
| A28U U48A G70A U76C | 0.06 |
| A28U U48C A57G | 0.95 |
| A28U U48C A64G U76A A77G | 0.14 |
| A28U U48C A64U | 0.19 |
| A28U U48C U51C U54A U58C | 0.19 |
| A28U U48C U51G U69C | 0.15 |
| A28U U48C U54C | 0.39 |
| A28U U48C U60C U67C A75U | 0.2 |
| A28U U49A C79U | 0.57 |
| A28U U49C A57G A64U U80C | 0.13 |
| A28U U49C A57G U72C | 0.16 |
| A28U U49C U60C | 0.41 |
| A28U U51A A57G U66C U72C | 0.14 |
| A28U U51A A65G | 0.36 |
| A28U U51A U60C | 0.32 |
| A28U U51C A64G U72G U80C | 0.29 |
| A28U U51C C59U | 0.31 |
| A28U U51C U58A C68A U72G A77G | 0.21 |
| A28U U51C U78C | 0.87 |
| A28U U51G U54C | 0.61 |
| A28U U54A U72C | 0.42 |

| Variant | self-cleavage |
| --- | --- |
| A28U U54C A77G | 0.75 |
| A28U U54C C59A U69A | 0.18 |
| A28U U54C U60C C81A | 0.21 |
| A28U U54C U72C | 0.84 |
| A28U U54G U72C | 0.88 |
| A28U U60C U69A U78A | 0.22 |
| A28U U60C U72G A75G | 0.33 |
| A28U U60C U74C | 0.86 |
| A28U U66C U76A | 0.33 |
| A28U U67A U69C U78C | 0.12 |
| A28U U69A A75G | 0.14 |
| A28U U72C U78A | 1.11 |
| A28U U72C U80A | 1.07 |
| C29A A35G U51C U58C U66A U76C | 0.21 |
| C29A A35U A57G G61C U67A | 0.04 |
| C29A A45C U49A C50G | 0.12 |
| C29A A45C U74G | 0.15 |
| C29A A45U A64U U67C | 0.16 |
| C29A A56U U72C | 0.55 |
| C29A C39A U60A | 0.36 |
| C29A G52U A64G | 0.16 |
| C29A U31C C40U | 0.14 |
| C29A U41C A47U | 0.08 |
| C29A U41C U66A | 0.47 |

| Variant | self-cleavage |
| --- | --- |
| C29A U43C A45U A57G | 0.05 |
| C29A U60C U72C | 0.08 |
| C29A U69A U76A U80C | 0.24 |
| C29A U72A U78A | 0.27 |
| C29A U74A A77G | 0.59 |
| C29G A35G A64G | 0.49 |
| C29G A35G A65U U69A U72A | 0.1 |
| C29G A35U U72C | 0.19 |
| C29G A45G U80A | 0.61 |
| C29G A45U U72C | 0.14 |
| C29G A64G U67C | 0.05 |
| C29G C32U A35C U49A U80C | 0.24 |
| C29G C34A A35G | 0.11 |
| C29G C37U A64G | 0.08 |
| C29G G33A A57U U58C U76C | 0.09 |
| C29G G33A U48C | 0.07 |
| C29G U31A C40U U41A A47G | 0.23 |
| C29G U31A C40U U41A A47G A56G U80A | 0.16 |
| C29G U41G U69C | 0.08 |
| C29G U48C U69C | 0.08 |
| C29G U48C U69C U72A U80A | 0.04 |
| C29G U49C U51A U69C | 0.15 |
| C29G U54C U80A | 0.05 |
| C29G U58C A65G U69C U76C | 0.18 |

| Variant | self-cleavage |
| --- | --- |
| C29U A35G A45G U66C | 0.43 |
| C29U A35G A77G | 1.25 |
| C29U A35G C39U U66A | 0.62 |
| C29U A35G U41C G53A G73A | 1.25 |
| C29U A35U A64U | 0.21 |
| C29U A35U U41C | 0.23 |
| C29U A35U U66C | 0.16 |
| C29U A35U U80G | 0.19 |
| C29U A45G C71U U72C A75G | 0.07 |
| C29U A45G U51C U69C | 0.08 |
| C29U A45U U60C A65G U67C U72C | 0.11 |
| C29U A47U U48C U54C A56G U60A A64G | 0.11 |
| C29U A56U U69C | 0.38 |
| C29U A57G U67C | 0.15 |
| C29U A64G C81A | 0.18 |
| C29U A65G U67A U78C | 0.11 |
| C29U A65G U67C U69C | 0.13 |
| C29U C32A U43C A45G U76G | 0.05 |
| C29U C32U A35C | 0.05 |
| C29U C34A U60A | 0.05 |
| C29U C34U A45U U58C U67C | 0.1 |
| C29U C39G A64U U67C | 0.07 |
| C29U C40A U54C A65C | 0.13 |
| C29U C40U U43C U58C | 0.23 |

| Variant | self-cleavage |
| --- | --- |
| C29U C50G U60G U78A | 0.13 |
| C29U G33A U43C U51A U66C | 0.14 |
| C29U G33A U49C | 0.05 |
| C29U G33C U41A G53U A75G | 0.05 |
| C29U G63A A65G U69A | 0.17 |
| C29U G63U U80C | 0.69 |
| C29U U31A A56G A75G | 0.12 |
| C29U U31A U67A | 0.11 |
| C29U U31A U76A | 0.21 |
| C29U U31C A35G A45C | 0.13 |
| C29U U31C A56U G73A | 0.12 |
| C29U U31C A64U | 0.21 |
| C29U U31C U41A U48A A56G | 0.17 |
| C29U U31C U54A U60A | 0.1 |
| C29U U41A A75G A77U | 0.43 |
| C29U U41A G46U | 0.12 |
| C29U U41A U48C U58C G61A | 0.08 |
| C29U U41C U60A G61A G70U | 0.1 |
| C29U U43C A56U | 0.17 |
| C29U U43C C44U | 0.23 |
| C29U U43C U66A U69A | 0.04 |
| C29U U43G U48C | 0.22 |
| C29U U48C G53A U80A | 0.44 |
